In all, about 310,000 compounds went through this assay and about 2,200 (0.71%) showed an effect of 50% or more. The effect is printed as a negative number. This is one part of the list.
Target: human ether-à-go-go-related gene (hERG) potassium channel (human, UniProt Q12809)
Assay: primary screen, population patch clamp on CHO cells stably expressing hERG

Chain of human ether-à-go-go-related gene (hERG) potassium channel (Q12809 whole entry, looked up): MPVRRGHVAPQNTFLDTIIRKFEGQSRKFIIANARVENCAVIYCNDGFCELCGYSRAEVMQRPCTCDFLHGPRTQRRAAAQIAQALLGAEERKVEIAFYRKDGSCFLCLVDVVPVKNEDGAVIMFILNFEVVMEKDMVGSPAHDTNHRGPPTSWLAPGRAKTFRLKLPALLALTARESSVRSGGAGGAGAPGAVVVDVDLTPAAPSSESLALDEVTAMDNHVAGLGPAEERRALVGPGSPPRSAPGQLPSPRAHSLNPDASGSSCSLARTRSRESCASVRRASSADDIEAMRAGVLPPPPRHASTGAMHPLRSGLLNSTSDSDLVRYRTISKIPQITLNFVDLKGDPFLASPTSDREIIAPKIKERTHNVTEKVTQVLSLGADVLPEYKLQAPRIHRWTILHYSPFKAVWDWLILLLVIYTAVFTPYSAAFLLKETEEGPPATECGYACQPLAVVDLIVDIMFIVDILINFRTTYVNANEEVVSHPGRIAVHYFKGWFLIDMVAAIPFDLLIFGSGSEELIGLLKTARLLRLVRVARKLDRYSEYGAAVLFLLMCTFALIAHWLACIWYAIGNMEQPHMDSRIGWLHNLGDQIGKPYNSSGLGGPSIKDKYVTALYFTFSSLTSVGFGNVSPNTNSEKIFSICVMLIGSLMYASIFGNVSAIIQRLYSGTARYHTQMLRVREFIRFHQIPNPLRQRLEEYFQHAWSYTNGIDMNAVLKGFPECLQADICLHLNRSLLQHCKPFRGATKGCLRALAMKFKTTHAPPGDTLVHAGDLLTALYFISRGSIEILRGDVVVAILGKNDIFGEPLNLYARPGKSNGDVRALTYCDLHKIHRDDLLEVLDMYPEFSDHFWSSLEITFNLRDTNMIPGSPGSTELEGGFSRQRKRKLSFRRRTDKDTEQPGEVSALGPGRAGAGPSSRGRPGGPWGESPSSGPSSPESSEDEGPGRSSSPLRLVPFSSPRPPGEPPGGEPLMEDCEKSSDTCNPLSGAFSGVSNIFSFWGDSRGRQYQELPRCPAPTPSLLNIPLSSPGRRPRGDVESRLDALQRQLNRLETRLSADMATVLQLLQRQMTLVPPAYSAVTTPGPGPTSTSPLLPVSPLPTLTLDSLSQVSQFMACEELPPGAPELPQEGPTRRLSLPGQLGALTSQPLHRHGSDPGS

SMILES | hERG current change (%, negative = inhibition) at 1uM [%]
COc1ccc(-n2c(O)c(C(C)=NC3CC3)c(=O)[nH]c2=O)cc1 | 6.49
Cn1c(SCC(=O)N2CCc3ccccc3C2)nnc1-c1cccs1 | -24.1
COc1ccc(S(=O)(=O)N2CCC3(CC2)OCCN3S(=O)(=O)c2ccc(OC)cc2)cc1 | -2.15
O=C(Nc1c2c(nn1-c1ccc([N+](=O)[O-])cc1)CS(=O)(=O)C2)c1cccs1 | 3.14
CCOCCCNC(=O)C(c1ccc(Cl)cc1)N(Cc1cccs1)C(=O)c1ccccn1 (stereo not drawn) | 8.13
CCN1CCN(CCCNC(=O)c2ccccc2NC(=O)C2=C(C)OCCS2)CC1 | 10.1
O=C(CN1C(=O)COc2ccccc21)NCCN1CCC(Cc2ccccc2)CC1 | -19
CCSc1nc2ccccc2n1CC(=O)N1CCCCC1 | 9.11
COc1ccccc1CNC(=O)COC(=O)c1ccccc1-c1ccccc1 | 14.1
COc1ccc(C2c3[nH]c4ccccc4c3CCN2C(=O)c2cn3ccccc3n2)c(F)c1 (stereo not drawn) | 13
COC(=O)C1=C(C)NC(C)=C(C(=O)OC)C1C(=O)OCC(=O)c1ccc(F)cc1 | 12.4
CCOc1ccc(S(=O)(=O)NCc2ccc3c(c2)OCO3)cc1NC(C)=O | 14.7
Cc1ccc(C2(C)NC(=O)N(CC(=O)NNC(=O)c3ccccc3)C2=O)cc1 (stereo not drawn) | 11.7
COc1ccccc1C(=O)NCCC(=O)NCC1COc2ccccc2O1 (stereo not drawn) | 8.08
Cc1ccc(-c2nc(-c3ccncc3)no2)c(Cl)c1 | 24.2
O=C(c1ccccc1C(=O)N(c1ccccc1)c1ccccc1)N1CCCCC1 | 9.86
O=C(CSc1nnc(-c2ccc3c(c2)OCCO3)o1)N1CCCC1 | 4.79
CCOC(=O)c1c(N)sc2c1CCC(C)C2 (stereo not drawn) | -0.273
O=C(CSc1nnnn1-c1ccccc1)NCC1(N2CCOCC2)CCCCC1 | 12.9
COc1ccc(NC(=O)CN2CCN(C(=S)NC3CCCC3)CC2)cc1 | -16.2
CC1CN(C(=O)Nc2ccc(Br)cc2Cl)CC(C)O1 (stereo not drawn) | 9.73
O=C(/C=C/c1c(F)cccc1Cl)c1ccc(O)cc1 | 10.1
CC1NC(=O)NC1CCCCCC(=O)Nc1ccc(F)cc1 (stereo not drawn) | -0.454

SMILES | hERG current change (%, negative = inhibition) at 1uM [%]
CCN(CC)C(=S)Oc1c(Cl)cccc1Cl | 3.08
Cn1c(NC(=O)c2ccc(F)cc2)nc2ccccc21 | 15.3
COc1cc(C(=O)Nc2cc3c(cc2N2CCCCC2)n(C)c(=O)n3C)cc(OC)c1OC | 18.3
CCc1ccc(OCC(=O)NC2CC(C)(C)NC(C)(C)C2)cc1 | 0.201
Cn1c(N)c(C(=O)COC(=O)c2ccc(Cl)c(S(=O)(=O)N3CCCCC3)c2)c(=O)n(C)c1=O | 9.84
COc1ccc(CCn2c(C)cc(C(=O)COC(=O)c3cnccn3)c2C)cc1 | 5.85
COc1cc(OC)c2ccc(=O)oc2c1C(CC(=O)N1CCCC1)c1ccc(N(C)C)cc1 (stereo not drawn) | 14.9
CC(CC(=O)Nc1nnc(C(C)(C)C)s1)c1ccccc1 (stereo not drawn) | 7.98
Cn1c2c(c(=O)n(C)c1=O)C(NS(=O)(=O)c1ccc(Cl)cc1)(C(F)(F)F)C(=O)N2 (stereo not drawn) | -2.13
COc1ccc(C2/C(=C(\O)c3ccc4c(c3)OCCO4)C(=O)C(=O)N2c2nc(C)c(C(C)=O)s2)cc1 (stereo not drawn) | 8.1
O=C(NCCN1CCCCC1)Nc1ccc(F)c(Cl)c1 | 13.6
COCCn1c(-c2ccc(OC)cc2)c(-c2ccc(OC)cc2)oc1=O | -1.77
COC(=O)Cn1c(=O)c2c(nc3n2CCCN3CCc2ccc(OC)c(OC)c2)n(C)c1=O | 5.05
COc1cc(OC)cc(C(=O)NC(=S)NCCc2ccccc2)c1 | -9.12
CCOc1ccc(NC(=O)CCN2CCN(c3ccccc3F)CC2)cc1 | 12.1
CCOC(=O)C1=C(C)NC(=O)NC1c1c(OC)ccc2ccccc12 (stereo not drawn) | 13.3
CCOc1ccccc1NC(=O)c1nc[nH]c1C(=O)Nc1ccccc1OCC | 14.9
NC(=O)C1CCN(C(=O)CCC(=O)N2CCOc3ccc(Cl)cc32)CC1 | 13.4
CCOC(=O)C(=O)Nc1sc(C(=O)N2CCOCC2)c(C)c1C#N | 9.78
CC(C)c1ccc(OCc2cccc(C(=O)N/N=C/c3cccnc3)c2)cc1 | 2.75
Cc1cccc(-c2cc3nc4c(c(N5CCC6(CC5)OCCO6)n3n2)CCCC4)c1 | 16.8
Cc1ccc(CN2CCSc3ccc(C(=O)N4CCOCC4)cc32)cc1 | 15.5
